From PubChem BioAssay (Tox21) come the findings set out here.

Assay [1] can be described thus: cAMP Responsive Elements (CRE) small molecule agonists, cell-based qHTS assay: qHTS cell viability counter screen (AID 2060914).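 Note: viability read after 3 h of compound exposure; nearly all actives have a fitted effect of over 50% in size.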 The source says: National Center for Advancing Translational Sciences [NCATS]
Division of Preclinical Innovation [DPI]
U.S. Environmental Protection Agency [EPA]
National Institutes of Environmental Health Sciences [NIEHS]
National Toxicology Program [NTP]
U.S. Food and Drug Administration [FDA]
(§1) CREB (cyclic-AMP Responsive Element Binding Protein) is a cellular transcription factor. It binds to certain DNA sequences called cAMP Responsive Elements (CRE) and regulates the transcription of the genes. […] This cell line can be used to find agonists/antagonists of the cyclic AMP signaling pathway. The activation of the report gene under culture conditions can be detected by fluorescence intensity. This cell line has been used to screen the Tox21 10K compound library to identify agonists that induce oxidative stress. The cytotoxicity of the Tox21 compound library against the CRE-bla cell line was tested in parallel by measuring the cell viability using CellTiter-Glo assay (Promega, Madison, WI) in the same wells.
Tox21 Assay Protocol Summary:
CRE-bla Hek 293T cells were suspended in assay medium (DMEM containing 10% dialyzed FBS, 0.1 mM NEAA, 1 mM sodium pyruvate and 25 mM HEPES) and dispensed at 2,000 cells/5 uL /well into 1536-well black wall/clear bottom plates using a Multidrop Combi (ThermoFisher Scientific, Waltham, MA) dispenser. After the assay plates were incubated at 37 C/5% CO2 for 18 hrs, 23 nL of compounds dissolved in DMSO, positive controls or DMSO only was transferred to the assay plate by a pintool workstation (Kalypsys, San Diego, CA). After the plates were incubated at 37 C/5% CO2 for 3 hrs, 1 uL of LiveBLAzer B/G FRET substrate (Invitrogen, Carlsbad, CA) was added to each well using Bioraptr Flying Reagent Dispenser (FRD, Aurora Discovery, San Diego, CA). The plates were incubated at room temperature for 2 h, then fluorescence intensities were measured using an Envision plate reader (PerkinElmer, Shelton, CT) at Excitation 405nm, Emission 460nm and 530nm. The % activity was determined from the ratio of 460nm/530nm. For cell viability readout that measures cytotoxicity, 4 uL /well of CellTiter-Glo reagent was added into the assay plates using Bioraptr FRD. After 30 min incubation at room temperature, the luminescence intensity in the assay plates was measured using a ViewLux (PerkinElmer, Shelton, CT) plate reader.

Assay [2] can be described thus: cAMP Responsive Elements (CRE) small molecule antagonists, cell-based qHTS assay: qHTS cell viability counter screen (AID 2060913). Note: nearly all actives have a fitted effect of over 40% in size.
Excerpt: as §1, with “U.S. Tox21 Program National Center for Advancing Translational Sciences [NCATS] Division of Preclinical Innovation [DPI] U.S. Environmental Protection Agency [EPA] National Institutes of Environmental Health Sciences [NIEHS] National Toxicology Program [NTP] U.S. Food and Drug Administration [FDA] Tox21 Assay Overview: CREB” for “CREB”
Tox21 Assay Protocol Summary: CRE-bla Hek 293T cells were suspended in assay medium (DMEM containing 10% dialyzed FBS, 0.1 mM NEAA, 1 mM sodium pyruvate and 25 mM HEPES) and dispensed at 2,000 cells/4 uL /well into 1536-well black wall/clear bottom plates using a Multidrop Combi (ThermoFisher Scientific, Waltham, MA) dispenser. After the assay plates were incubated at 37 C/5% CO2 for 18 hrs, 23 nL of compounds dissolved in DMSO, positive controls or DMSO only was transferred to the assay plate by a pintool workstation (Kalypsys, San Diego, CA), followed by addition of 1 uL of 1.25uM NKH477 (0.25 uM as final concentration) in assay medium using a Flying Reagent Dispenser (Aurora Discovery, San Diego, CA). The plates were incubated at 37 C and 5% CO2 for 3 hrs. Then 1 uL of LiveBLAzer B/G FRET substrate (Invitrogen, Carlsbad, CA) was added to each well using Bioraptr Flying Reagent Dispenser (FRD, Aurora Discovery, San Diego, CA). The plates were incubated at room temperature for 2 h, then fluorescence intensities were measured using an Envision plate reader (PerkinElmer, Shelton, CT) at Excitation 405nm, Emission 460nm and 530nm. The % activity was determined from the ratio of 460nm/530nm. For cell viability readout that measures cytotoxicity, 4 uL /well of CellTiter-Glo reagent was added into the assay plates using Bioraptr FRD. After 30 min incubation at room temperature, the luminescence intensity in the assay plates was measured using a ViewLux (PerkinElmer, Shelton, CT) plate reader.

Records with an inconclusive call do not appear. Calls come from the whole dose curve; as a rule, active = well fitted cell-killing curve with a large enough effect in the repeat runs; inconclusive = weak or mixed curves, or effect the other way; inactive = flat fitted curve, though single readings scatter. A structure can be active in one record and inactive in another. Some entries of the source have several records that differ or are many. This is not the full list of results. There may be further records. Results that share an entry are repeated measurements across runs, samples, wells, individuals or studies. What stands in brackets tells the records apart. A, B and so on number the origins entry by entry.
Potency is the fitted concentration of half-maximal effect.

As to `Clc1ccc(COC(Cn2ccnc2)c2ccc(Cl)cc2Cl)cc1` (stereo not drawn), the Potency result in assay [1] is “inactive [sample A] and active: 68.3 µM [sample B]”.

On to `CCCCCCCCCCCC[N+](C)(C)CCOc1ccccc1`, for which, in assay [2], the Potency entry was “active: 54.5 µM [sample A] and inactive [sample B]”.

In the case of `CCOP(=O)(O)OCC` (tested in a mixture with another compound), the Potency result was “inactive [sample A] and active: 27.1 µM [sample B]” in assay [2]; “inactive [sample A] and active: 42.9 µM [sample B]” in assay [1].

As for `Nc1nc(N)nc(NC2CC2)n1`, in assay [1], the Potency result is “inactive [sample A] and active: 1.19 µM [sample B]”.

On to `NC(=S)Nc1ccccc1`, for which the Potency result in assay [2] was “active: 22 µM [sample A] and inactive [sample B]”.

Turning to `C=C(C)[C@H]1Cc2c(ccc3c2O[C@@H]2COc4cc(OC)c(OC)cc4[C@@H]2C3=O)O1`, the Potency result in assay [2] was “active: 492 nM [sample A] and inactive [sample B]”.

As to `C[C@]12CCC(=O)C[C@@H]1CC[C@@H]1[C@@H]2CC[C@]2(C)[C@@H](O)CC[C@@H]12`, the Potency result in assay [2] is “active: 53.8 µM [sample A] and inactive [sample B]”.

For the compound `O=S1OCC2C(CO1)C1(Cl)C(Cl)=C(Cl)C2(Cl)C1(Cl)Cl` (stereo not drawn), in assay [1], the Potency entry is “inactive [sample A] and active: 61.1 µM [sample B]”.

Regarding `CCC[CH2][Sn]([Cl])([CH2]CCC)[CH2]CCC`, the Potency result in assay [1] was “active: 3.86 µM [sample A] and inactive [sample B]”.

On to `CC(C)c1ccc(OP(=O)(Oc2ccc(C(C)C)cc2)Oc2ccc(C(C)C)cc2)cc1`, for which the Potency result in assay [2] is “active: 48.9 µM [sample A] and inactive [sample B] and active: 68.5 µM [sample C]”.

Consider `[Cd+2].[Cl-].[Cl-]`, for which the Potency entry in assay [2] is “inactive [sample A] and active: 32 µM [sample B]”.

For the compound `Clc1ccc(C(c2ccccc2Cl)C(Cl)(Cl)Cl)cc1` (stereo not drawn), in assay [1], the Potency result was “inactive [sample A] and active: 45.1 µM [sample B]”.
